# Reference: a collection of fitness landscapes (doi:10.1126/science.1257360)
# Some of the results follow.
# B1: PhoQ; a variant is named by its letters at X, in order, P23837 (parent)
# chain: MKKLLRLFFPLSLRVRFLLATAAVVLVLSLAYGMVALIGYSVSFDKTTFRLLRGESNLFYTLAKWENNKLHVELPENIDKQSPTMTLIYDENGQLLWAQRDVPWLMKMIQPDWLKSNGFHEIEADVNDTSLLLSGDHSIQQQLQEVREDDDDAEMTHSVAVNVYPATSRMPKLTIVVVDTIPVELKSSYMVWSWFIYVLSANLLLVIPLLWVAAWWSLRPIEALAKEVRELEEHNRELLNPATTRELTSLVRNLNRLLKSERERYDKYRTTLTDLTHSLKTPLXXLQXXLRSLRSEKMSVSDAEPVMLEQISRISQQIGYYLHRASMRGGTLLSRELHPVAPLLDNLTSALNKVYQRKGVNISLDISPEISFVGEQNDFVEVMGNVLDNACKYCLEFVEISARQTDEHLYIVVEDDGPGIPLSKREVIFDRGQRVDTLRPGQGVGLAVAREITEQYEGKIVAGESMLGGARMEVIFGRQHSAPKDE
# Variants of: B1
# Experiment: enrichment ratio after two sorts for PhoP signalling (ratio (wild type AVST 3.29)); higher = more functional
# Conditions: with PhoP (E. coli)
row,Variant,enrichment ratio
1,ITNT,≤ 0.25
2,IHED,≤ 0.25
3,MHAA,≤ 0.25
4,VDPL,≤ 0.25
5,YLGY,≤ 0.25
6,GKWH,≤ 0.25
7,RAFC,≤ 0.25
8,FWKP,≤ 0.25
9,RYIG,≤ 0.25
10,DNIE,≤ 0.25
11,TTAN,6.61
12,NNRL,≤ 0.25
13,RLNR,≤ 0.25
14,DYYY,≤ 0.25
15,SVEP,≤ 0.25
16,RCSH,≤ 0.25
17,LMLK,≤ 0.25
18,PTFP,≤ 0.25
19,YEPP,≤ 0.25
20,GLRD,≤ 0.25
21,QECP,≤ 0.25
22,SACE,11.7
23,MAYN,16.6
24,QASQ,23.3
25,SHHQ,≤ 0.25
26,SVCW,≤ 0.25

row,Variant,enrichment ratio
1,TLKA,≤ 0.25
2,ILWV,≤ 0.25
3,RLET,≤ 0.25
4,IHCK,≤ 0.25
5,EQNS,≤ 0.25
6,PGWY,≤ 0.25
7,HIRA,≤ 0.25
8,HMQR,≤ 0.25
9,RMFM,≤ 0.25
10,DESQ,≤ 0.25
11,QIDA,≤ 0.25
12,MLHE,≤ 0.25
13,WPSW,≤ 0.25
14,IGVI,≤ 0.25
15,WDQI,≤ 0.25
16,RMAP,≤ 0.25
17,DHEV,≤ 0.25
18,YPMS,≤ 0.25
19,RDKC,≤ 0.25
20,WMLE,≤ 0.25
21,HMYE,≤ 0.25
22,YNWG,≤ 0.25
23,YNCM,1.98
24,HSIY,≤ 0.25
25,APHC,≤ 0.25
26,PAIL,≤ 0.25

row,Variant,enrichment ratio
1,MPHW,≤ 0.25
2,PIMH,≤ 0.25
3,SDPT,≤ 0.25
4,VHRV,≤ 0.25
5,FHIW,≤ 0.25
6,RWHN,≤ 0.25
7,MILI,3.97
8,DTDH,≤ 0.25
9,FYCG,≤ 0.25
10,LIPQ,≤ 0.25
11,DPFW,≤ 0.25
12,HDDD,≤ 0.25
13,MGES,≤ 0.25
14,INKR,≤ 0.25
15,WGIE,≤ 0.25
16,MMGG,≤ 0.25
17,PGFS,≤ 0.25
18,FLFW,≤ 0.25
19,YACM,8.41
20,TPYA,≤ 0.25
21,SDAI,4.77
22,FLEC,≤ 0.25
23,DEAD,≤ 0.25
24,DIRQ,≤ 0.25
25,TALI,18.1
26,ASLM,15.3

row,Variant,enrichment ratio
1,GMYK,≤ 0.25
2,DLQI,≤ 0.25
3,EFCC,≤ 0.25
4,MGKM,≤ 0.25
5,EFCY,≤ 0.25
6,QRNP,≤ 0.25
7,KVCW,≤ 0.25
8,IWEC,≤ 0.25
9,WETF,≤ 0.25
10,YILC,≤ 0.25
11,ANAK,≤ 0.25
12,MSGK,≤ 0.25
13,KEAR,≤ 0.25
14,FEAA,≤ 0.25
15,PYIM,≤ 0.25
16,MTFS,≤ 0.25
17,YCAM,≤ 0.25
18,ANFT,≤ 0.25
19,GSIE,≤ 0.25
20,AGKH,≤ 0.25
21,IPMW,≤ 0.25
22,SNSR,≤ 0.25
23,GMEW,≤ 0.25
24,HMHN,≤ 0.25
25,RACW,≤ 0.25
26,ANWQ,≤ 0.25

row,Variant,enrichment ratio
1,LDSD,≤ 0.25
2,IKVR,≤ 0.25
3,KDSI,≤ 0.25
4,DLMC,≤ 0.25
5,AMMQ,13.1
6,TKRS,0.257
7,QEVK,≤ 0.25
8,DMGN,≤ 0.25
9,YRMT,≤ 0.25
10,NVTF,≤ 0.25
11,HPTW,≤ 0.25
12,TANM,19.5
13,DNTF,≤ 0.25
14,KCNG,≤ 0.25
15,KMFS,≤ 0.25
16,NSSY,≤ 0.25
17,AKFM,0.887
18,DFAV,≤ 0.25
19,MHAN,≤ 0.25
20,SNLI,11.3
21,IAAC,0.266
22,NNKH,≤ 0.25
23,PLYN,≤ 0.25
24,FIGD,≤ 0.25
25,GKLK,≤ 0.25
26,RYDR,≤ 0.25

row,Variant,enrichment ratio
1,AKLK,≤ 0.25
2,TCIR,≤ 0.25
3,ASRV,≤ 0.25
4,LLML,≤ 0.25
5,NQCM,≤ 0.25
6,GRSY,≤ 0.25
7,YTVM,≤ 0.25
8,HLPT,≤ 0.25
9,RNTY,≤ 0.25
10,SPIR,≤ 0.25
11,KQCI,≤ 0.25
12,DTTA,≤ 0.25
13,DVLQ,≤ 0.25
14,QQQI,≤ 0.25
15,RPHI,≤ 0.25
16,STLP,≤ 0.25
17,ERYW,≤ 0.25
18,LTCM,≤ 0.25
19,VYCE,≤ 0.25
20,DGSD,≤ 0.25
21,YLAH,0.291
22,KQSR,≤ 0.25
23,VESV,0.597
